Test results: PMC9911399, “Two distinct binding modes provide the RNA-binding protein RbFox with extraordinary sequence specificity”
Residue numbers refer to the chain shown, from its start. The list shows a part of the results.

T1: RBFOX1 RRM (Homo sapiens, UniProt Q9NWB1 109-208)
T1 sequence: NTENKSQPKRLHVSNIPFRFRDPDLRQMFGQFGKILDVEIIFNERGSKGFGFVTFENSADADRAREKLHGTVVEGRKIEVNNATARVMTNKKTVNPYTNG

B1: CGGUUAU (DNA:RNA)
RNA: GGGAGACCGGAAUUCAGAUUGUCCCGGUUAUUUAAAUCCCGUCGUAGCCACCA
DNA 1: CAATCTGAATTCCGGTCTCCC
DNA 2: TGGTGGCTACGACGGGATT
B2: GAAGAUC (DNA:RNA)
RNA: GGGAGACCGGAAUUCAGAUUGUCCGAAGAUCUUAAAUCCCGUCGUAGCCACCA
DNA 1: CAATCTGAATTCCGGTCTCCC
DNA 2: TGGTGGCTACGACGGGATT
B3: AAAGAGU (DNA:RNA)
RNA: B2 RNA with G25A, U30G, C31U
DNA 1: CAATCTGAATTCCGGTCTCCC
DNA 2: TGGTGGCTACGACGGGATT
B4: GUCUGUC (DNA:RNA)
RNA: B2 RNA with A26U, A27C, G28U, A29G
DNA 1: CAATCTGAATTCCGGTCTCCC
DNA 2: TGGTGGCTACGACGGGATT
B5: GUCGUAA (DNA:RNA)
RNA: B1 RNA with C25G, G26U, G27C, U28G, U31A
DNA 1: CAATCTGAATTCCGGTCTCCC
DNA 2: TGGTGGCTACGACGGGATT
B6: CGGCAUU (DNA:RNA)
RNA: B1 RNA with U28C, U29A, A30U
DNA 1: CAATCTGAATTCCGGTCTCCC
DNA 2: TGGTGGCTACGACGGGATT
B7: CCUAGCC (DNA:RNA)
RNA: B1 RNA with G26C, G27U, U28A, U29G, A30C, U31C
DNA 1: CAATCTGAATTCCGGTCTCCC
DNA 2: TGGTGGCTACGACGGGATT
B8: GAAGGUG (DNA:RNA)
RNA: B2 RNA with A29G, C31G
DNA 1: CAATCTGAATTCCGGTCTCCC
DNA 2: TGGTGGCTACGACGGGATT
B9: GGUCACA (DNA:RNA)
RNA: B2 RNA with A26G, A27U, G28C, U30C, C31A
DNA 1: CAATCTGAATTCCGGTCTCCC
DNA 2: TGGTGGCTACGACGGGATT
B10: AAAGGGC (DNA:RNA)
RNA: B2 RNA with G25A, A29G, U30G
DNA 1: CAATCTGAATTCCGGTCTCCC
DNA 2: TGGTGGCTACGACGGGATT
B11: CAGGCUG (DNA:RNA)
RNA: B2 RNA with G25C, A27G, A29C, C31G
DNA 1: CAATCTGAATTCCGGTCTCCC
DNA 2: TGGTGGCTACGACGGGATT
B12: GUAUAGU (DNA:RNA)
RNA: B2 RNA with A26U, G28U, U30G, C31U
DNA 1: CAATCTGAATTCCGGTCTCCC
DNA 2: TGGTGGCTACGACGGGATT
B13: GACACCC (DNA:RNA)
RNA: B2 RNA with A27C, G28A, A29C, U30C
DNA 1: CAATCTGAATTCCGGTCTCCC
DNA 2: TGGTGGCTACGACGGGATT
B14: AGAUUGC (DNA:RNA)
RNA: B1 RNA with C25A, G27A, A30G, U31C
DNA 1: CAATCTGAATTCCGGTCTCCC
DNA 2: TGGTGGCTACGACGGGATT
B15: CGUUCCC (DNA:RNA)
RNA: B1 RNA with G27U, U29C, A30C, U31C
DNA 1: CAATCTGAATTCCGGTCTCCC
DNA 2: TGGTGGCTACGACGGGATT
B16: CGACGGU (DNA:RNA)
RNA: B1 RNA with G27A, U28C, U29G, A30G
DNA 1: CAATCTGAATTCCGGTCTCCC
DNA 2: TGGTGGCTACGACGGGATT
B17: AACAACU (DNA:RNA)
RNA: B2 RNA with G25A, A27C, G28A, U30C, C31U
DNA 1: CAATCTGAATTCCGGTCTCCC
DNA 2: TGGTGGCTACGACGGGATT
B18: GCAGACU (DNA:RNA)
RNA: B2 RNA with A26C, U30C, C31U
DNA 1: CAATCTGAATTCCGGTCTCCC
DNA 2: TGGTGGCTACGACGGGATT
B19: UGGGAAG (DNA:RNA)
RNA: B1 RNA with C25U, U28G, U29A, U31G
DNA 1: CAATCTGAATTCCGGTCTCCC
DNA 2: TGGTGGCTACGACGGGATT
B20: GUAAUUA (DNA:RNA)
RNA: B2 RNA with A26U, G28A, A29U, C31A
DNA 1: CAATCTGAATTCCGGTCTCCC
DNA 2: TGGTGGCTACGACGGGATT
B21: AAAUUUG (DNA:RNA)
RNA: B2 RNA with G25A, G28U, A29U, C31G
DNA 1: CAATCTGAATTCCGGTCTCCC
DNA 2: TGGTGGCTACGACGGGATT
B22: ACCAUUU (DNA:RNA)
RNA: B1 RNA with C25A, G26C, G27C, U28A, A30U
DNA 1: CAATCTGAATTCCGGTCTCCC
DNA 2: TGGTGGCTACGACGGGATT
B23: GCCAGGA (DNA:RNA)
RNA: B2 RNA with A26C, A27C, G28A, A29G, U30G, C31A
DNA 1: CAATCTGAATTCCGGTCTCCC
DNA 2: TGGTGGCTACGACGGGATT
B24: UCUUGUG (DNA:RNA)
RNA: B1 RNA with C25U, G26C, G27U, U29G, A30U, U31G
DNA 1: CAATCTGAATTCCGGTCTCCC
DNA 2: TGGTGGCTACGACGGGATT
B25: AGAGCUG (DNA:RNA)
RNA: B2 RNA with G25A, A26G, A29C, C31G
DNA 1: CAATCTGAATTCCGGTCTCCC
DNA 2: TGGTGGCTACGACGGGATT
B26: ACAUAUG (DNA:RNA)
RNA: B2 RNA with G25A, A26C, G28U, C31G
DNA 1: CAATCTGAATTCCGGTCTCCC
DNA 2: TGGTGGCTACGACGGGATT
B27: UUCUCCG (DNA:RNA)
RNA: B1 RNA with C25U, G26U, G27C, U29C, A30C, U31G
DNA 1: CAATCTGAATTCCGGTCTCCC
DNA 2: TGGTGGCTACGACGGGATT
B28: GAGUGGG (DNA:RNA)
RNA: B1 RNA with C25G, G26A, U29G, A30G, U31G
DNA 1: CAATCTGAATTCCGGTCTCCC
DNA 2: TGGTGGCTACGACGGGATT
B29: CAGUCUU (DNA:RNA)
RNA: B1 RNA with G26A, U29C, A30U
DNA 1: CAATCTGAATTCCGGTCTCCC
DNA 2: TGGTGGCTACGACGGGATT
B30: AAACCUC (DNA:RNA)
RNA: B2 RNA with G25A, G28C, A29C
DNA 1: CAATCTGAATTCCGGTCTCCC
DNA 2: TGGTGGCTACGACGGGATT
B31: CGAGUUC (DNA:RNA)
RNA: B2 RNA with G25C, A26G, A29U
DNA 1: CAATCTGAATTCCGGTCTCCC
DNA 2: TGGTGGCTACGACGGGATT

What follows are binders tested against T1, RBFOX1 RRM (assay: EMSA; HiTS-Eq, 1 nM pool, 10 min; buffer printed only for the single-RNA assays: 10 mM Tris pH 7.5, 150 mM NaCl, 3.4 mM EDTA, 0.001% NP-40, 30 C). Details: tags: His6 N-terminal (pET28a); label: 5' 32P.
In short: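 Purified wild-type or mutant RbFox RRM at increasing concentrations was equilibrated with 1 nM of 5′-radiolabelled RNA carrying 7 randomized nucleotides for 10 min in 50 µL. Unbound RNA was separated by 8% native PAGE and sequenced. Relative association constants came from read-count changes of each RNA species compared with the control reaction, normalised to the cognate motif.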

| Binder | binding signal |
| --- | --- |
| B1 | 0.0102 KA relative to UGCAUGU |
| B2 | 0.0114 KA relative to UGCAUGU |
| B3 | 0.00527 KA relative to UGCAUGU |
| B4 | 0.0176 KA relative to UGCAUGU |
| B5 | 0.00666 KA relative to UGCAUGU |
| B6 | 0.0122 KA relative to UGCAUGU |
| B7 | 0.00506 KA relative to UGCAUGU |
| B8 | 0.0185 KA relative to UGCAUGU |
| B9 | 0.00186 KA relative to UGCAUGU |
| B10 | 0.00798 KA relative to UGCAUGU |
| B11 | 0.0137 KA relative to UGCAUGU |
| B12 | 0.00855 KA relative to UGCAUGU |
| B13 | 0.00284 KA relative to UGCAUGU |
| B14 | 0.013 KA relative to UGCAUGU |
| B15 | 0.00758 KA relative to UGCAUGU |
| B16 | 0.0141 KA relative to UGCAUGU |

| Binder | binding signal |
| --- | --- |
| B17 | 0.00134 KA relative to UGCAUGU |
| B18 | 0.00947 KA relative to UGCAUGU |
| B19 | 0.0374 KA relative to UGCAUGU |
| B20 | 0.00398 KA relative to UGCAUGU |
| B21 | 0.0123 KA relative to UGCAUGU |
| B22 | 0.00156 KA relative to UGCAUGU |
| B23 | 0.0155 KA relative to UGCAUGU |
| B24 | 0.0192 KA relative to UGCAUGU |
| B25 | 0.0152 KA relative to UGCAUGU |
| B26 | 0.00418 KA relative to UGCAUGU |
| B27 | 0.00959 KA relative to UGCAUGU |
| B28 | 0.0138 KA relative to UGCAUGU |
| B29 | 0.00559 KA relative to UGCAUGU |
| B30 | 0.000431 KA relative to UGCAUGU |
| B31 | 0.00838 KA relative to UGCAUGU |
